The other results are listed elsewhere or left out. At the low end of the ranking the order means little.

The assay addresses MAX:MAX (p21) (UniProt P61244-2). As to the kind of experiment: protein-binding microarray (anti-MAX antibody). The following applies: PBM: 15 mM Tris-HCl pH 7.5, 100 mM KCl, 0.075% NP40, 7.5 mM beta-mercaptoethanol, 375 ng/ul BSA, 8 ng/ul poly(dA-dT):(dA-dT), 550 ng complex, 60 min, room …; high values mean tight binding; double strand, one strand shown; sequences stand for … in CCGGC…TTAATAGCTAAGATTACTATATCGACG
The sequence TGATCAGTTGTA came in with a binding signal (log2 normalized fluorescence) of 0.0196.
In turn, TAATACGGGGTA yielded a binding signal (log2 normalized fluorescence) of -0.331.
In turn, TGAATGTGAGTA yielded a binding signal (log2 normalized fluorescence) of 0.436.
Regarding TGAGGTAAGGTA, the binding signal (log2 normalized fluorescence) is -0.513.
Consider TGAACATCTGTA, for which the binding signal (log2 normalized fluorescence) was 0.466.
Take TGACAAACAGTA: the binding signal (log2 normalized fluorescence) came out at 0.0575.
Then TGAGTTTTCGTA, with -1.1; and TGAGGACATGTA, with 0.549; and TGAAGCCTCGTA, with -0.718.
On to TGACATCCAGTA, for which the binding signal (log2 normalized fluorescence) is -0.117.
Sequence TGATAGCCAGTA returned a binding signal (log2 normalized fluorescence) of -1.02.
With CGCAACGTGGTA, the binding signal (log2 normalized fluorescence) was found to be 3.08.
Then TGAATATACGTA, with -0.895; and TGATCGCAAGTA, with -0.25.
TGAAGACGGGTA returned a binding signal (log2 normalized fluorescence) of -0.654.
Sequence TACTACGTGGTA gave a binding signal (log2 normalized fluorescence) of 1.83.
Then TGATGTGGCGTA, with 0.0972; and TGACACAGTGTA, with 0.387.
The value for TGACCATCCGTA was 0.116; that for TGATGGTTCGTA was -0.114; that for TGAAAAATCGTA was -1.14.
AGACACGTAGTA returned a binding signal (log2 normalized fluorescence) of 2.46.
In the case of TGAGTTTCGGTA, the binding signal (log2 normalized fluorescence) is -1.2.
As for TGATACTTGGTT, the binding signal (log2 normalized fluorescence) is -0.867.
Then TGACCGTATGTA, with 0.677.
Sequence TGAGCCCCTGTA yielded a binding signal (log2 normalized fluorescence) of -0.569.
The value for TGACGAAGAGTA was -0.775; that for TGACAGTGGGTA was -0.279; that for TGATATTACGTA was -0.718.
For the sequence TGATTCAGGGTA, the binding signal (log2 normalized fluorescence) was -0.966.
TGATATGTCGTA gave a binding signal (log2 normalized fluorescence) of -0.856.
TGACACGTCTAA displayed a binding signal (log2 normalized fluorescence) of 0.936.
Then TGATGGCTCGTA, with -0.0028; and TGAGTTTGAGTA, with -1.35.
Then TGAATACCCGTA, with -0.713; and TGATCTTGGGTA, with -0.93.
Then TGACTACAGGTA, with -0.577; and TGACGTTACGTA, with -0.0122.
TGATAGGTCGTA yielded a binding signal (log2 normalized fluorescence) of -1.23.
TGATATGGTGTA registered a binding signal (log2 normalized fluorescence) of -0.358.
In turn, TGAGTTGAAGTA yielded a binding signal (log2 normalized fluorescence) of -0.949.
On to CGACACGTTGTA, for which the binding signal (log2 normalized fluorescence) was 3.14.
With TGAACGGTGGTA, the binding signal (log2 normalized fluorescence) came to 0.0564.
Then TGAACCCGCGTA, with -0.175.
Then TGATCACACGTA, with 1.49.
TGATGGTAGGTA showed a binding signal (log2 normalized fluorescence) of 0.124.
Take TGAGCTAGCGTA: the binding signal (log2 normalized fluorescence) is -1.37.
Then TGACGTTATGTA, with -0.148; and TGATCATCTGTA, with -0.0292; and TGAGTACATGTA, with 0.314.
TGAACACTTGTA gave a binding signal (log2 normalized fluorescence) of 0.134.
The value for TGATTATTAGTA was -1.14; that for TGACCCGGGGTC was -0.231.
TGAGTCCTCGTA gave a binding signal (log2 normalized fluorescence) of -0.692.
TGAGTGGCGGTA showed a binding signal (log2 normalized fluorescence) of 0.049.
In turn, TGAATAAGTGTA displayed a binding signal (log2 normalized fluorescence) of -0.73.
Then TGATCGAGCGTA, with -1; and TGATTGCAGGTA, with -0.214.
TGAGAATCGGTA returned a binding signal (log2 normalized fluorescence) of -1.06.
The value for TGATAAGCCGTA was -1.36; that for TGATGATGTGTA was 0.000904; that for TGACACGCTCTA was 2.64.
The sequence TGACATCGTGTA yielded a binding signal (log2 normalized fluorescence) of 1.86.
Then TGAAAACGGGTA, with -0.282.
As to TGACTCGGAGTA, the binding signal (log2 normalized fluorescence) was -0.796.
The value for TGAGCCTTAGTA was -1.29; that for TGATCCTACGTA was -0.737; that for TCCAACGTGGTA was 3.05.
In the case of TGAAGCAGTGTA, the binding signal (log2 normalized fluorescence) is -0.444.
The value for TGAGTCCAGGTA was -0.78; that for TGAGCTGACGTA was -0.718; that for TGACGCCTTGTA was -0.43.
With TGACATCCTGTA, the binding signal (log2 normalized fluorescence) came to 0.242.
The value for TGACACACGGTA was 1.51; that for TGAAGTACGGTA was -0.26.
Then TGACACATGGTC, with 3.13; and TGACACGTGGGC, with 3.35.
Then TAACAAGTGATA, with 0.403; and TGAGGGGAGGTA, with 1.01.
The sequence TGATAGCAGGTA came in with a binding signal (log2 normalized fluorescence) of -0.613.
With TGAGGACGCGTA, the binding signal (log2 normalized fluorescence) is -0.268.
TGAGCATTTGTA came in with a binding signal (log2 normalized fluorescence) of -0.22.
With TGATCTGCTGTA, the binding signal (log2 normalized fluorescence) was -0.65.
In turn, TGAAGGCTCGTA showed a binding signal (log2 normalized fluorescence) of -0.994.
The value for TGAATGAGGGTA was 0.0743; that for TGACAGCAAGTA was 0.621.
TGAAGCGGGGTT gave a binding signal (log2 normalized fluorescence) of 0.322.
Then TGACAGTCGGTA, with -0.0821; and TGAAGTGATGTA, with -0.128.
Then TGAACTCAGGTA, with -0.666.
As to TGACTCCAGGTA, the binding signal (log2 normalized fluorescence) was -0.56.
Then TGAGTACACGTA, with 0.15; and TCTCAGGTTTTT, with -0.587.
TGATTGACGGTA displayed a binding signal (log2 normalized fluorescence) of -0.929.
The value for TGAGGGCTGGTA was -0.268.
The value for TCATACGTAGTA was 0.528; that for CGACGCGAGGTA was 2.05; that for TGAAACGTCGTA was -0.131.
TGAGGAACCGTA yielded a binding signal (log2 normalized fluorescence) of -0.709.
Sequence TGAGTTGTTGTA showed a binding signal (log2 normalized fluorescence) of -0.83.
Then TGAAAATGCGTA, with 0.393; and TGATTCACGGTA, with 0.000807.
The value for TGAATTGGTGTA was -0.864; that for TGACCCATGGTA was 2.08.
As to TGATAAAAAGTA, the binding signal (log2 normalized fluorescence) was -1.09.
TGATGGCCCGTA yielded a binding signal (log2 normalized fluorescence) of 0.236.
The value for TGACACGTGGAA was 3.16.
Then TGATTCAGCGTA, with -1.02; and TGCCATGTGGGA, with 3.34; and TGATTTGTGGTA, with -0.799.
The value for TGGCACTTGGTA was -0.00109.
On to TGACAGGATGTA, for which the binding signal (log2 normalized fluorescence) was 0.32.
The value for CGCCACGTGGTC was 3.44; that for TGATTTGCTGTA was -0.467; that for TGAGCAGTCGTA was -0.649.
TGACCAGACGTA showed a binding signal (log2 normalized fluorescence) of -0.192.
The value for TGATGAACTGTA was -0.564; that for TGATGTGCAGTA was 0.631.
The value for TGAGTGACAGTA was 0.0728; that for TGACTGTCAGTA was 0.0715; that for TGATGTCGAGTA was -0.197.
Then TGACGCCTAGTA, with -0.368; and TGAATTACAGTA, with -0.758.
Turning to TGACACGCGGAA, the binding signal (log2 normalized fluorescence) was determined as 3.1.
The value for TGATGTCATGTA was 0.624; that for TGAGGACTTGTA was -0.44; that for TGAATCACCGTA was -0.221.
Then TGACAGGTGGCA, with 2.8; and TGAGTTTGGGTA, with -1.33.
The value for TGACTTAGCGTA was -0.922; that for TGATCCGCGGTA was -0.53; that for TGACCGCCGGTA was -0.241.
Turning to TGACACGTGGCT, the binding signal (log2 normalized fluorescence) was 3.04.
The sequence TGATACCTCGTA came in with a binding signal (log2 normalized fluorescence) of -0.53.
Regarding TGACTCAGGGTA, the binding signal (log2 normalized fluorescence) is -0.515.
Turning to TGAACCGATGTA, the binding signal (log2 normalized fluorescence) is -0.234.
The value for TGAGCACCTGTA was 1.68.
